Data on 2 molecules can be found in patent US10941208B2, “Anti-MUC16 antibodies” (Regeneron Pharmaceuticals, Inc., priority 2016, dated 2021).

Assay [1] concerns the target T1, soluble monomeric human MUC16 (hMUC16.mmh, last five SEA domains, SEQ ID: 1902) (Homo sapiens, UniProt Q8WXI7).
T1 construct: mmh (myc-myc-hexahistidine)
The experiment in a line: Surface plasmon resonance (BIACORE) binding to hMUC16 fragment at 25° C. The note with it: for KD / ka / kd / t 1/2: Hybridoma anti-MUC16 antibodies (H1M, H2M, H3M), 25° C., Table 5A; for binding to soluble truncated human MUC16 protein via surface plasmon resonance (in words): truncated format encompassing the last five SEA domains. Details: key to ka / kd / KD / t 1/2: NB: No binding. A general note: In SPR one partner is held on a chip, and binding of the other changes the refractive index at the surface.

The target in assay [2] is T2, hMUC16 endogenously expressed on OVCAR-3 cell line (Homo sapiens, UniProt Q8WXI7).
T2 construct: OVCAR-3 cells endogenously express MUC-16; endogenous in cells; host or cells: OVCAR-3 (also luciferase-transduced OVCAR3-Luc)
The experiment in a line: Electrochemiluminescence (MSD) cell binding, OVCAR-3 vs SK-OV-3. The conditions noted are these: cell-based binding assay. Here is the method:
The ability of anti-MUC16 antibodies to bind specifically to endogenously expressing MUC16 on the human ovarian carcinoma cell line (OVCAR-3) was evaluated via an electrochemiluminescence based detection assay (Meso Scale Discovery (MSD), Rockville, Md.). […] Detached cells were then washed once in 1×PBS supplemented with Ca^2+/Mg^2+ and counted (Cellometer Auto T4 cell counter, Nexcelom Bioscience, Lawrence, Mass.). Approximately 1.0×10^4 cells were plated in MULTI-ARRAY 96-well carbon electrode plates (MSD) and incubated for 1 h at 37° C. […] Next, serial dilutions of anti-MUC16 or control antibodies (0.85 pM-50 nM) and no-antibody buffer controls were added to the plate-bound cells and incubated for 1 h at room temperature (RT). […] Plate-bound antibodies were detected with a SULFO-TAG™-conjugated anti-human kappa light chain antibody (Regeneron) or a SULFO-TAG™-conjugated anti-mouse IgG antibody (Jackson Immunoresearch, West Grove, Pa.) for 1 h at RT. Post-wash, plates were developed with Read Buffer (MSD) according to manufacturer's protocol and luminescent signals were recorded with a SECTOR Imager 6000 (MSD) instrument.
Luminescence intensity, measured in relative light units (RLU), for the two cell lines was recorded to indicate the binding intensity of each antibody.

T1 sequence (Q8WXI7 with tags, fused parts or gaps): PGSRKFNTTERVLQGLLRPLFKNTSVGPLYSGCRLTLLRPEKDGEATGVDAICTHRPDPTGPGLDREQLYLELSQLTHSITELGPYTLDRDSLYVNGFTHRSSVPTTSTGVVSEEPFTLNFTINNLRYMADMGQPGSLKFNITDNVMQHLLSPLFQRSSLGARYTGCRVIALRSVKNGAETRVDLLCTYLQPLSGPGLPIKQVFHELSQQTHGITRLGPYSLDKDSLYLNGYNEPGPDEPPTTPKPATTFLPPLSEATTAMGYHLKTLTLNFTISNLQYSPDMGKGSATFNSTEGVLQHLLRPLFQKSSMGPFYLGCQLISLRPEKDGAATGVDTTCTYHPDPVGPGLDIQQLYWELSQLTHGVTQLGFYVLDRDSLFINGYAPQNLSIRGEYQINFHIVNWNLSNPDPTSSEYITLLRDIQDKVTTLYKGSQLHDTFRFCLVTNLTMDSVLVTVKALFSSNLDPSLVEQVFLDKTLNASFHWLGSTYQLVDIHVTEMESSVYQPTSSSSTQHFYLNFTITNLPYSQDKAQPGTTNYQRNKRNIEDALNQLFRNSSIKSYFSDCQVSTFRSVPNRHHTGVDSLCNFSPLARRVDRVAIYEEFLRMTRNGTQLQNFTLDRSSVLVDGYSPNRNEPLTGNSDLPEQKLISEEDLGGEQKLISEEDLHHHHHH

B1: H3M9524N: anti-MUC16 hybridoma antibody, mIgG3; HCVR/LCVR SEQ ID NOs: 346/354 (antibody, V domains shown)
VH: QVQLQQWGAGLLKPSETLSLTCAVYGGSFSDYYWSWIRQPPGKGLEWIGEINHRGKTNYNPSLKSRVSISVDPSKNQFSLKLSSVTAADTAVYYCARQGWNYAIFDYWGQGILVPVSS
VL: DIVMTQSPDSLAVSLGERATINCKSSQSVLYRSNNKNYLGWYQQKPGQPPKLLIYWASSREAGVPDRFSGSGSGTEFTLTISSLQAEDEAVYYCQQYYSSPPTFGQGTKVEIK
As for B1, in assay [1], the KD entry is listed as “NB”, the ka result was “NB”, the kd result was “NB” and the “t 1/2” value is listed as “NB”. Besides, the “binding to soluble truncated human MUC16 protein via surface plasmon resonance (in words)” value in assay [1] is on record as “no binding”. In addition, in assay [2], the “specific binding to endogenous human MUC16 expressed on OVCAR-3 cells (in words)” value is “specific binding”.

B2: H3M9525N: anti-MUC16 hybridoma antibody, mIgG3; HCVR/LCVR SEQ ID NOs: 362/370 (antibody, V domains shown)
VH: QVQLQQWGAGLLKPSETLSLTCAVYGGSFSGYYWSWIRQPPGKGLEWIGEINHSGKTTYSPSLKSRVTISVDTSKSQFSLKLSSVTAADTAVYYCARQGLNYAIFDYWGQGTLVTVSS
VL: YIVMTQSPDSLAVSLGERATINCKSSRSILYTSNNKNYLAWYQQRPGQPPKLLIYWASTRESGVPDRFSGSGSGTDFTLTISSLQAEDVAVYYCQQYFSSPPTFGQGTKVEIK
As for B2, in assay [1], the KD entry is listed as “NB”, the ka entry is on record as “NB”, the kd result is on record as “NB” and the “t 1/2” value is “NB”. Further, in assay [1], the “binding to soluble truncated human MUC16 protein via surface plasmon resonance (in words)” value is given as “no binding”. The “specific binding to endogenous human MUC16 expressed on OVCAR-3 cells (in words)” value in assay [2] is “specific binding”.
